# Assay results: the supplement of paper PMC11417369
# ± gives the standard deviation of the averaged measurements. This is one part of the list.
# Tested on: PfAP2-EXP AP2 domain (GST-tagged)
# Experiment: gcPBM binding intensity (ln(normalized median fluorescence intensity)); higher = stronger DNA binding
# Outline: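 Each value is the highest Masliner-normalised natural-log median intensity across replicate spots of either orientation of a probe. The probes were primer-extended double-stranded 36-bp intergenic genomic sequences on an Agilent 4 × 180k array, alongside negative controls, exposed for 1 h to GST-tagged P. falciparum DNA-binding domains expressed in E. coli. Bound protein was picked up with Alexa488 anti-GST antibody and scanned at 488 nm.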
row,Sequence,gcPBM binding intensity (ln)
1,ATAGGATGCATATGAGTGCATTCTGTGTTGTTATAA,8.36 ± 0.099
2,AAAAAAAAAATTAAATGTACACACACCTTAAACAAT [XGTACX_site3848],8.68 ± 0.45
3,TAATGTATTATATTTTGTTTTCTTCCACCAAAAAAA [XGTACX_negctrl_site64],8.71 ± 0.39
4,ACCCATATAATATATACACACATATATATATATATA [CACACA_site4731],9.94 ± 0.49
5,ATTTTCTTATATATATTTTGTATATATTTTGTACAT [CACACA_negctrl_site1496],8.76 ± 0.45
6,TAAAAATTGAAGCACACACACAAAAGAAATACAATA [CACACA_site1113],8.97 ± 0.49
7,TTTTTTTTTACTTGTTGTACTTTTTCAAGGTATTGT [XGTACX_site7778],8.76 ± 0.49
8,ATATAAAAAAATTGCACACATAAATAAATACAGATA [CACACA_site4806],8.87 ± 0.29
9,ATATATATATATAATAAACACACAAATAGATATAAC [CACACA_site9234],9.8 ± 0.24
10,TATATATATATATATACATGCATACATATACATACA [TGCATGCA_site897],10.2 ± 0.5
11,CTACCTTTAATATATACACACACATAAAAAAAATAT [CACACA_site8548],8.71 ± 0.45
12,AGATAAGATATATACACACACATAAATACGTACAAA [CACACA_site6639],9.14 ± 0.21
13,ATTATATAGCTAAAAAAAATAAATTAAAAATATTAA [TGCATGCA_negctrl_site505],8.21 ± 0.42
14,ATATTTACAAGTAATAGTACAGTTAATTATATAAAA [XGTACX_site4856],8.34 ± 0.33
15,AATGTACAAATACGTACACACATATTTATATTTATA [CACACA_site6833],8.5 ± 0.21
16,AAGAATGTTATTAGTACACACAATTATTATAGAAAT [CACACA_site7714],8.54 ± 0.33
17,TTTGGCTAGTTAGGCCGTACATGTAAATAATATATA [XGTACX_site1138],8.71 ± 0.13
18,TCCATATATGCCTTATGTACATATACCAAATTAACC [XGTACX_site6513],8.98 ± 0.35
19,AATAATAAAGTGAACACACACATATAACATCTATAT [CACACA_site7868],8.46 ± 0.59
20,AAAGGATTTATACTAGTGCAAAAATATAAAAATATA,8.73 ± 0.21
21,TTGGAAAAAGTGAAATGTACATATATATTTATTATT [XGTACX_site6946],8.63 ± 0.51
22,AATGAATGTAAGAAAATACACACTAGTATAGTAACA [CACACA_site1955],8.76 ± 0.57
23,GAAGTTTTTTAAAGATGTACTTTTTAAAAATAATCT [XGTACX_site263],8.24 ± 0.32

row,Sequence,gcPBM binding intensity (ln)
1,ACAAATACAAAAAAAGGTACACACATAATATATTTA [XGTACX_site5515],8.72 ± 0.51
2,GACACAAAAAAATAATAATAATAATAATAATAAATA [XGTACX_negctrl_site145],8.31 ± 0.49
3,AATATAAATACTCCTACACACATATATATATATATA [CACACA_site3010],10.1 ± 0.52
4,AAATATTTTATACTTGCACACAAAATATATTAAAAT [CACACA_site8606],8.45 ± 0.25
5,TTTGTTTTTAATTTCGCACACACCTTGTGGAAAAAA [CACACA_site577],8.7 ± 0.21
6,TTCTTATAAATATACACACACAAAATATCTACAATG [CACACA_site6487],8.65 ± 0.42
7,TTATAAGATTTATGTACACACATATACTCACCTCTA [CACACA_site729],8.51 ± 0.25
8,CCTTAAAATAAGATATGTACGCAAAGGAAAACAAAG [XGTACX_site6057],9.08 ± 0.48
9,TGTGTAAGATCTTGGATGATGATAAGAATCTACTAG [CACACA_negctrl_site1167],8.49 ± 0.56
10,TGCTATAATTTATATACACACAAATATATACGCATA [CACACA_site4096],8.38 ± 0.36
11,TATGTATGTGCTTGTGCGCACCGATAATATAGCCAA,8.865 ± 0.021
12,TCTCATAGTAGACACACACACACACGCACATATATA [CACACA_site6916],8.89 ± 0.49
13,TTTTATGAAAAGTATTGTACGTATAATTTATATGTA [XGTACX_site1639],8.32 ± 0.41
14,ACATAAGACACAAATACACACAAAAATATGTAACAA [CACACA_site7836],8.59 ± 0.52
15,TATATAAATAGACACACACACACCTTATAATTACTA [CACACA_site7828],8.7 ± 0.3
16,AAAAAAAAAAAACACACACACACATACACATACATA [CACACA_site2858],8.56 ± 0.61
17,ATAATAATTAACCTATGTACATAGGAAAGTCATAAA [XGTACX_site4387],8.92 ± 0.62
18,GAAGAAAAATAAAAAGTGCAAAAAAAGTAAAAATTT [GTGCAC_site9897],8.95 ± 0.49
19,ATATATATATATAATTGTACATATAATATAATATTA [XGTACX_site5216],9.99 ± 0.17
20,AATATGTTATAAATATGTTATAAATAATAAATAAAT [GTGCAC_negctrl_site135],8.45 ± 0.47
21,AACACATGCTTGGTCACACACGTATGCATATTTAAA [CACACA_site5206],8.89 ± 0.41
22,ATATATATTATATATAGTACTTTTTTGCGCAAATAT [XGTACX_site6849],8.71 ± 0.33
